Our source for the TGI values is PubChem BioAssay (NCI).

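Cells were grown in 96-well plates and exposed to each compound for 48 hours at five concentrations; endpoints were interpolated linearly between bracketing concentrations, or set to the highest concentration if not reached. TGI is the concentration that stops growth completely.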 For part of its entries the source gives two or more results. The other results are left out here. There may be further records. Records of one sample usually come from different ranges of test concentrations, which the source does not state; a value can be the end of its range.

Common to all, as to test: NCI anticancer screen, dose series, 48 h
The test system of test [1] is CCRF-CEM leukemia.
Test [2] has as its system MOLT-4 leukemia.
Test [3] relates to M14 melanoma.
Test [4] relates to OVCAR-4 ovarian.
For test [5], the system named is SK-MEL-2 melanoma.
The subject of test [6] is SNB-19 CNS.
Test [7] has as its system HOP-18 NSCLC.
Test [8] relates to XF 498 CNS.
Test [9] relates to NCI-H23 lung.

Turning to `COc1cccc2c1C(=O)c1c(O)c3c(c(O)c1C2=O)CC(O)(C(=O)CO)CC3OC1CC(N)C(O)C(C)O1` (stereo not given), the TGI in test [1] is 8.42 µg/mL and 64.1 µg/mL; in test [2] it was 75 µg/mL and 15 µg/mL.
With `COc1cccc2c1C(=O)c1c(O)c3c(c(O)c1C2=O)C[C@@](O)(C(=O)CO)CC3OC1CC(NCCCC(OC(C)=O)OC(C)=O)C(O)C(C)O1` (stereo not given in full), the TGI in [3] is 3.77 nM and 0.211 nM; in [2] it was 7.72 nM and > 1 µM; in test [4], 4.65 nM and 102 nM; in [5] it was 3.52 nM and 0.177 nM; in test [6] it was 8.81 nM and > 1 µM; in test [7], 9.92 nM and 482 nM. Moreover, the TGI in [8] is 4.12 nM and 0.357 nM; in test [9] it was 4.55 nM and 0.231 nM.
